# Experimental data from PubChem BioAssay AID1347428 (National Center for Advancing Translational Sciences (NCATS), 2020).
# Screen size: about 91,000 compounds; about 290 (0.32%) were called active. The inconclusive results got no clear call from the source; some entries with a clear call stand among them for comparison. Calls follow the shape of the dose curve; as a rule, active = well fitted inhibition curve with a large enough effect; inconclusive = small, poorly fitted or top-dose-only effect; inactive = no such curve, though single readings can be large or run the other way. A potency beside an inconclusive call is a rough fit, not a confirmed value.
# Target: Single-stranded DNA cytosine deaminase (Homo sapiens) (UniProt Q9GZX7)
# Assay: Primary qHTS assay for inhibitors of Activation Induced Cytidine Deaminase (AID): AID signal; also: nearly all actives have a fitted effect of over 25% in size
# Settings: AID deamination FRET fluorescence, UDG-coupled, 4 h; series mostly up to 115 µM
# Potency is read from the fitted curve at half-maximal effect; tags tell the direction and shape of the fitted curve.
# UniProt Q9GZX7, sequence (Q9GZX7 whole entry, looked up): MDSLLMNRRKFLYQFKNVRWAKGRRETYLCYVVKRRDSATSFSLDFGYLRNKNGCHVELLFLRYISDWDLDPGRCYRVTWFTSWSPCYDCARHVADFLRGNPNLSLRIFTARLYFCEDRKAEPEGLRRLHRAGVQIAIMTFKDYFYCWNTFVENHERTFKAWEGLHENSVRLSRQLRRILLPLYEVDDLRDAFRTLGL
row,SMILES,Potency
1,COCC(C)Nc1ncnc2c1cnn2-c1cccc(Cl)c1 (configuration not stated),"inconclusive: 35.5 µM [inhibitor, partial curve, poor fit]"
2,Cc1ccc(Cl)cc1N1CCN(C(=O)c2cc(S(=O)(=O)N3CCCCC3)cn2C)CC1,"inconclusive: 79.4 µM [inhibitor, partial curve, poor fit]"
3,CCOc1ccc(CNc2nc(NCc3ccc(OCC)cc3)n(C(=O)C(C)C)n2)cc1,inactive
4,COCCNC(=O)NC(=O)Cn1nc(C(=O)O)c2ccccc2c1=O,inactive
5,COc1ccc2cc3c(N)nn(C(=O)c4ccc(F)cc4Cl)c3nc2c1,"inconclusive: 50.1 µM [inhibitor, partial curve, poor fit]"
6,Cc1ccc(Cl)cc1N1CCN(C(=O)c2cn(C)c3ccc(S(=O)(=O)N4CCCCC4)cc3c2=O)CC1,"inconclusive: 39.8 µM [inhibitor, single point]"
7,Cc1ccc(CCNC(=O)c2ccc(CSc3nc4ccncc4n3Cc3ccc(F)cc3)cc2)cc1,"inconclusive: 35.5 µM [inhibitor, full curve, poor fit]"
8,CCC(C(=O)NCCc1ccc(SC)cc1)n1nc(C)c2c(C)n(-c3ccc(C)cc3)nc2c1=O (configuration not stated),"inconclusive: 50.1 µM [inhibitor, partial curve, poor fit]"
9,CCOc1cc(CNCCSc2nnnn2C)cc(Cl)c1OCc1ccc(Cl)cc1,"inconclusive: 12.6 µM [inhibitor, full curve, poor fit]"
10,CCn1c(SCC(=O)N2CCc3ccccc32)nnc1C(C)NC(=O)c1ccccc1F (configuration not stated),inactive
11,Cc1ccc2ccc3cc(C(=O)Nc4ccc(C)c(F)c4)nc3c2[nH]1,"inconclusive: 100 µM [inhibitor, partial curve, poor fit]"
12,CCC(C(=O)N(C)Cc1ccccc1)n1nc(C)c2sc3ccccc3c2c1=O (configuration not stated),"inconclusive: 39.8 µM [inhibitor, full curve]"
13,COc1ccccc1C(=O)N(Cc1ccco1)Cc1ccccc1F,"inconclusive: 35.5 µM [inhibitor, full curve, poor fit]"
14,CCCCN(CC)C(=O)C1CCC(CNS(=O)(=O)c2cccc3nsnc23)CC1 (configuration not stated),inactive
15,CC(=O)N(Cc1cccnc1)c1nc2cc(C)cc(C)c2s1,"inconclusive: 56.2 µM [inhibitor, partial curve, poor fit]"
16,CCc1ccc(CN(Cc2ccco2)C(=O)c2ccc(C)cc2)cc1,"inconclusive: 50.1 µM [inhibitor, partial curve, poor fit]"
17,Cc1ccc(Cl)cc1-n1ncc2c(NCCC3=CCCCC3)ncnc21,"inconclusive: 20 µM [inhibitor, full curve, poor fit]"
18,Cc1cccn2c(=O)cc(COc3ccc(NC(=O)C(C)Oc4ccccc4)cc3)nc12 (configuration not stated),"inconclusive: 15.8 µM [inhibitor, full curve, poor fit]"
19,Cn1c(=O)c2c(-c3ccccc3Br)n(Cc3ccccc3)cc2n(C)c1=O,"inconclusive: 79.4 µM [inhibitor, partial curve, poor fit]"
20,Cc1ccccc1CNC(=O)c1cc2cccc3c2n1CC(C)S3 (configuration not stated),"inconclusive: 28.2 µM [inhibitor, partial curve]"
21,Cc1ccc(Cn2ccnc2SCC(=O)Nc2ccc3c(c2)OCCO3)cc1,inactive

row,SMILES,Potency
1,CCOc1ccc(-c2nnc(SCC(=O)c3ccc(F)cc3)n2-c2ccccc2)cc1,inactive
2,Cc1ccc(S(=O)(=O)C(CNC(=O)COc2ccc(Cl)cc2)c2ccco2)cc1 (configuration not stated),"inconclusive: 44.7 µM [inhibitor, partial curve, poor fit]"
3,N#C/C(=C\c1ccc(-c2ccc(C#N)cc2)o1)c1nc2ccccc2[nH]1,inactive
4,CCN(CC)C(=S)SC(C(N)=O)c1ccccc1 (configuration not stated),inactive
5,COc1ccc(-c2noc(CN(C(=O)Cc3ccc(C)cc3)C(C)C)n2)cc1,"inconclusive: 56.2 µM [inhibitor, partial curve, poor fit]"
6,Cc1ccc(CSCCC(=O)N2CCN(c3cc(C)ccc3C)CC2)cc1,"inconclusive: 100 µM [inhibitor, single point]"
7,COc1ccccc1NC(=O)Nc1nnc(N(C)C2CCCCC2)s1,inactive
8,COc1ccc2c(Sc3ccccc3)c(C(=O)N3CCC(C)CC3)[nH]c2c1,"inconclusive: 20 µM [inhibitor, full curve, poor fit]"
9,CCCC(=O)Oc1ccc2c(=O)c(Oc3cc(C)cc(C)c3)c(C(F)(F)F)oc2c1,"inconclusive: 100 µM [inhibitor, single point]"
10,Cc1ccc(NC(=O)CCCN2C(=O)COc3ccc(C)cc32)c(C)c1,"inconclusive: 17.8 µM [inhibitor, partial curve, poor fit]"
11,COCCNC(=O)Cn1cc2c(n1)-c1c(oc(C(=O)N3CCCC3)c1C)CC2,"inconclusive: 70.8 µM [inhibitor, partial curve, poor fit]"
12,O=C(NCCCN1CCCCC1)c1ccc2c(c1)sc1nc(-c3ccc(F)cc3)cn12,"inconclusive: 70.8 µM [inhibitor, partial curve, poor fit]"
13,Clc1cccc(-n2ncc3c(NC4CCCC4)ncnc32)c1,inactive
14,COc1ccccc1NC(=O)COC(=O)CC(C)(C)CC1=NS(=O)(=O)c2ccccc2N1,inactive
15,O=C(CN(c1cccc(C(F)(F)F)c1)S(=O)(=O)c1ccccc1)Nc1cccc(Cl)c1,"inconclusive: 15.8 µM [inhibitor, full curve]"
16,Cc1cccc(Cc2c(C)nc3nc(SCc4cccc(F)c4)nn3c2C)c1,"inconclusive: 39.8 µM [inhibitor, full curve]"
17,Cc1ccc(OCCSc2nnc(COc3ccccc3Cl)n2C)cc1,inactive
18,COc1cc(CN(C(=S)NCC(=O)NCc2ccccc2Cl)C2CCCC2)cc(OC)c1OC,inactive
19,COc1ccc(CCNC(=O)c2ccc3c(c2)N(Cc2ccc(F)cc2)C(=O)c2ccccc2S3(=O)=O)cc1OC,"inconclusive: 39.8 µM [inhibitor, partial curve, poor fit]"
20,COc1c(C2CC(=O)Nc3c2ncn3-c2cccc(Cl)c2)cc2c(c1OC)OCO2 (configuration not stated),"inconclusive: 63.1 µM [inhibitor, partial curve, poor fit]"
21,COc1ccc(C(=O)/C=C/c2cn(CC(O)CN3CCc4ccccc43)c3ccccc23)cc1OC (configuration not stated),"inconclusive: 17.8 µM [inhibitor, full curve, poor fit]"

row,SMILES,Potency
1,O=S(=O)(c1ccccc1)c1cnc2cc3c(cc2c1N1CCN(Cc2ccccc2)CC1)OCCO3,"inconclusive: 39.8 µM [inhibitor, partial curve, poor fit]"
2,O=C(CCn1c(=O)c2cccn2c2cccnc21)N1CCN(c2cccc(C(F)(F)F)c2)CC1,"inconclusive: 39.8 µM [inhibitor, partial curve, poor fit]"
3,CC1CCCCC1NC(=O)c1ccc(-c2ccccc2)cc1 (configuration not stated),inactive
4,COc1ccc(C2=CC(c3cc(Br)ccc3F)n3c(nc4ccccc43)N2)cc1 (configuration not stated),"inconclusive: 31.6 µM [inhibitor, single point]"
5,O=C(c1ccc(F)cc1)c1cn(Cc2ccccc2)c2cc3c(cc2c1=O)OCO3,"inconclusive: 50.1 µM [inhibitor, partial curve, poor fit]"
6,COc1cc(Nc2nc(SCc3ccc(Cl)cc3)nc3ccccc23)cc(OC)c1,"inconclusive: 14.1 µM [inhibitor, full curve, poor fit]"
7,COc1cccc(C(=O)Nc2nc3nc(-c4ccccc4)cc(=O)n3[nH]2)c1,"inconclusive: 31.6 µM [inhibitor, partial curve, poor fit]"
8,CCN1CCN(CC(=O)N2CCNC(=O)C2CC(=O)Nc2ccc(F)cc2)CC1 (configuration not stated),inactive
9,COc1ccc(-c2nc(SCC(=O)Nc3ccc4c(c3)OCCO4)c(-c3ccc(F)cc3)[nH]2)cc1,"inconclusive: 25.1 µM [inhibitor, partial curve, poor fit]"
10,Cc1cccc(N2CCN(C(=O)CS(=O)(=O)c3cccc4nsnc34)CC2)c1C,"inconclusive: 100 µM [inhibitor, single point]"
11,COc1ccc(-n2ccnc2SCC(=O)Nc2ccc3c(c2)OCO3)cc1,"inconclusive: 25.1 µM [inhibitor, partial curve, poor fit]"
12,CCNCc1ccc(-c2ccc(C(F)(F)F)cc2)o1,inactive
13,Cc1c(C(=O)N2CCOCC2)oc2c1-c1nn(CC(=O)NCc3cccc(F)c3)cc1CC2,"inconclusive: 50.1 µM [inhibitor, partial curve, poor fit]"
14,CCCCN(Cc1ccccc1)c1ccc(NS(=O)(=O)c2cc(C)c(C)cc2C)cc1C(=O)O,"inconclusive: 35.5 µM [inhibitor, partial curve, poor fit]"
15,Cc1cccc(NC(=O)CN2C(=O)C(c3ccccc3)=NC23CCC(C)CC3)c1 (configuration not stated),"inconclusive: 25.1 µM [inhibitor, partial curve]"
16,CCCN(Cc1cc(=O)[nH]c2c(C)cc(C)cc12)C(=O)Nc1cc(Cl)c(OC)cc1OC,inactive
17,CCn1cc2nc(SCC(=O)Nc3ccc(C)cc3)n(Cc3ccc(C)cc3)c(=O)c2n1,"inconclusive: 50.1 µM [inhibitor, partial curve, poor fit]"
18,COc1ccc(CCNC(=O)c2cc3n(n2)CCCN(Cc2ccc(C)cc2)C3=O)cc1OC,inactive
19,CCc1ccc2oc(=O)cc(CN3CCN(CC(=O)N4CCCCC4)CC3)c2c1,inactive
20,Cc1cc(C)cc(-n2cnc3cc(C(=O)NC4CCCCCC4)ccc32)c1,"inconclusive: 15.8 µM [inhibitor, full curve, poor fit]"
